Paper PMC4336329 (PLoS ONE, 2015)
Hit rate of the full screen: of about 310,000 compounds, about 14,000 (4.5%) showed an effect of 50% or more. The effect is printed as a negative number. The list shows a part of the results.

Biological target: human ether-à-go-go-related gene (hERG) potassium channel (human, UniProt Q12809)
Experiment: primary screen, population patch clamp on CHO cells stably expressing hERG
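Further: peak tail current of the secondary pulse compared with the same well before compound.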

human ether-à-go-go-related gene (hERG) potassium channel, sequence (Q12809 whole entry, looked up): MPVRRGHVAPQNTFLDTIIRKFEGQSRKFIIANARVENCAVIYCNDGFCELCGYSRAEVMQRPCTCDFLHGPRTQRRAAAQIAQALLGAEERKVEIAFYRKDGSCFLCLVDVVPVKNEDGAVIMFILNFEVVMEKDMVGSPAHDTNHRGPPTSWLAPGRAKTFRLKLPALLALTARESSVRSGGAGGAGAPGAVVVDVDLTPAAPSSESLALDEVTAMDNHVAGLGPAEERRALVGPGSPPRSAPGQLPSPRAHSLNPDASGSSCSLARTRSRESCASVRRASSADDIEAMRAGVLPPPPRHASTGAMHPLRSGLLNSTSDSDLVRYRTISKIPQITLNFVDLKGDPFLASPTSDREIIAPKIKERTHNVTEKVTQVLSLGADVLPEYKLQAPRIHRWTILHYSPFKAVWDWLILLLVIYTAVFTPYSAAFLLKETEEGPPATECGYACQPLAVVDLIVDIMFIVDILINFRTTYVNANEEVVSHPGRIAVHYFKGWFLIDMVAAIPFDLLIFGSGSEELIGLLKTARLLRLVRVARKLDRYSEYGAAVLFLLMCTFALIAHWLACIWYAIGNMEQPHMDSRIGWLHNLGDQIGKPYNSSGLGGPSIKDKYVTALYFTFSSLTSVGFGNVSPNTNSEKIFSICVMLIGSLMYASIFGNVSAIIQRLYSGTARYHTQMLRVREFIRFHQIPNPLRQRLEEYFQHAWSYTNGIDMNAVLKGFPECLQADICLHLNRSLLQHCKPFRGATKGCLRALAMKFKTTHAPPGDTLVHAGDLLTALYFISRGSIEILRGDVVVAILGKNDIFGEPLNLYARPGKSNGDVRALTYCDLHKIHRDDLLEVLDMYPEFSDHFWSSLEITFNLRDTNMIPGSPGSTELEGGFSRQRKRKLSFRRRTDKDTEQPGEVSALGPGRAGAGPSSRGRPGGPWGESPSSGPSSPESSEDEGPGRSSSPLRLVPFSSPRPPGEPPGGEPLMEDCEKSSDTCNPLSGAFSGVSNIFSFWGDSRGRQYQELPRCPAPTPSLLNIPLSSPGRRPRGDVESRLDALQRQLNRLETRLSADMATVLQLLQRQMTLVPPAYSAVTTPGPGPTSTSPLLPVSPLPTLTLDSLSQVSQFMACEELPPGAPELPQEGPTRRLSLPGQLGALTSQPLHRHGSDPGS

Compared with `COc1ccc(S(=O)(=O)Nc2cc3c4c(oc3c3ccccc23)CCCC4=O)cc1`, `COc1cc(NC(=O)COc2ccc(Cl)cc2)ccc1-c1cc2ccccc2oc1=O` is higher in “hERG current change (%, negative = inhibition) at 10uM” value: 8.01% for the first, 15.5% for the second.

Going from `Nc1ccc2nc(NC(=O)C3CCCCC3)sc2c1` to `O=C(NCc1ccc(F)cc1Cl)C1CCN(S(=O)(=O)N2CCCCC2)CC1`, the “hERG current change (%, negative = inhibition) at 10uM” value rises from -11.1% to -6.95%.

First: CCCCc1ccc(NC(=O)CC(C)C)cc1
Second: CCC(c1nnc(SCC(=O)Nc2cccc(S(N)(=O)=O)c2)n1Cc1ccccc1)N(C)C (stereo not shown)
The “hERG current change (%, negative = inhibition) at 10uM” value of the first is lower: -6.78% for the first, 8.5% for the second.

Going from `COc1ccc2[nH]c(=O)c(CN(C(=O)c3ccco3)C3CCCCC3)cc2c1` to `COc1ccc(C(=O)/C=C2/Sc3cc4c(cc3N2C)OCO4)cc1`, the “hERG current change (%, negative = inhibition) at 10uM” value rises from -17.9% to 9.89%.

Going from `O=C(NCc1ccccn1)c1nc(-c2ccc(C(F)(F)F)cc2)no1` to `COc1ccc(C(=O)N/N=C/c2ccc(OC)c(CSc3ccccn3)c2)cc1`, the “hERG current change (%, negative = inhibition) at 10uM” value falls from -10.2% to -13.6%.

Going from `O=C(COC(=O)C12CC3CC(CC(C3)C1)C2)N1CCN(S(=O)(=O)c2ccccc2)CC1` to `COc1cccc(/C=C/C(=O)OCC(=O)N2CCN(c3ccccc3)CC2)c1`, the “hERG current change (%, negative = inhibition) at 10uM” value falls from 9.27% to -23.6%.

First: CCOc1cc(C)c(C(C)C)cc1S(=O)(=O)n1ccc(C)n1
Second: CCOc1cc(NC(=S)NCCc2ccccc2)c(OCC)cc1NC(C)=O
The “hERG current change (%, negative = inhibition) at 10uM” value of the first is lower: -29.4% for the first, -7.27% for the second.

Compared with `Cl.OC1(c2ccc3ccccc3c2)CCN(Cc2ccccc2)C1` (stereo not shown), `Br.N=c1ccn(CC(=O)c2ccc(-c3ccccc3)cc2)cc1` is higher in “hERG current change (%, negative = inhibition) at 10uM” value: -57.1% for the first, -6.07% for the second.

Compared with `Cc1cc2c(cc1C)CSC(c1ccccc1O)SC2`, `COc1ccc(-c2cc(C(=O)Nc3cc(C)nn3-c3ccccc3)no2)cc1OC` is higher in “hERG current change (%, negative = inhibition) at 10uM” value: 1.15% for the first, 16% for the second.

Compared with `Cc1cccc(NC(=O)c2oc3ccc(S(=O)(=O)N4CCOCC4)cc3c2C)c1C`, `COc1c(Br)cc2c(C)c(C(=O)N3CCOCC3)oc2c1Br` is higher in “hERG current change (%, negative = inhibition) at 10uM” value: -9.47% for the first, 0.976% for the second.

Compared with `O=C(OCC(=O)N1CCN(C(=O)c2ccco2)CC1)c1cccc(F)c1`, `CC(NC(=O)CCCN1C(=O)c2ccccc2C1=O)c1ccc2c(c1)CCCC2` (stereo not shown) is higher in “hERG current change (%, negative = inhibition) at 10uM” value: -16.8% for the first, -2.18% for the second.

First: Fc1ccccc1/C=N/n1cc(-c2ccccc2)[nH]c1=S
Second: O=C(CCCSc1nc2ccccc2c(=O)[nH]1)c1ccccc1
The “hERG current change (%, negative = inhibition) at 10uM” value of the first is higher: 8.21% for the first, -6.94% for the second.

First: CC1=C(C(=O)OC(C)(C)C)C(c2ccc(Br)cc2)NC(=O)N1CCCC(=O)O (stereo not shown)
Second: CCOCCOC(=O)c1[nH]c2c(c1C)C(=O)CC(c1cccs1)C2 (stereo not shown)
The “hERG current change (%, negative = inhibition) at 10uM” value of the first is higher: 0.0237% for the first, -1.56% for the second.

Compared with `Cc1cc(NC(=O)CSc2nnc(NCc3ccccc3)s2)no1`, `CCc1ccccc1-n1c(SCC(=O)Nc2ccc3c(c2)OCCO3)nc2[nH]ncc2c1=O` is lower in “hERG current change (%, negative = inhibition) at 10uM” value: 23% for the first, 7.25% for the second.

Compared with `C=C(C)Cn1c(SCC(=O)O)nc2c1c(=O)[nH]c(=O)n2C`, `Cc1ccc2nc(SCC(=O)O)nc(C)c2c1` is lower in “hERG current change (%, negative = inhibition) at 10uM” value: -6.43% for the first, -13.1% for the second.

Going from `OC[C@H]1OC(O)[C@H](O)[C@@H](O)[C@H]1O` (stereo partly shown) to `OCC[C@H]1C[C@@H](O)[C@H](O)[C@]2(Cc3ccccc3CO2)O1`, the “hERG current change (%, negative = inhibition) at 10uM” value falls from 12.7% to 10.1%.

Going from `N#C/C(=C\c1cccc(Cl)c1)c1n[nH]c(Cn2cncn2)n1` to `O=C(Nc1ccccc1O)c1ccc(Cl)cc1`, the “hERG current change (%, negative = inhibition) at 10uM” value rises from 2.7% to 7.71%.

Going from `CC/C(=C/c1sc2ccc(C)cc2[n+]1CCCS(=O)(=O)[O-])SC` to `Cc1cc(C)c2nc(-c3ccccn3)cc(C(=O)NCc3ccc(S(N)(=O)=O)cc3)c2c1`, the “hERG current change (%, negative = inhibition) at 10uM” value falls from 9.77% to -2.17%.

Going from `COc1ccc(-n2c(SCC(=O)N/N=C(\C)c3cccnc3)nc3ccccc3c2=O)cc1` to `CCOCCCNC(=O)C(c1ccc(OC)cc1)N(Cc1cccs1)C(=O)c1ccccc1O` (stereo not shown), the “hERG current change (%, negative = inhibition) at 10uM” value falls from 4.88% to -11.4%.

First: CC(C)(C)C(=O)Nc1cc(C(F)(F)F)ccc1N1CCOCC1
Second: CC(Sc1nc(N)cc(N)n1)C(=O)NCC1CCCO1 (stereo not shown)
The “hERG current change (%, negative = inhibition) at 10uM” value of the first is lower: 1.53% for the first, 10.2% for the second.

First: CC(C)Cn1c(CN(Cc2ccccc2)Cc2ccccc2)nc2c1c(=O)n(C)c(=O)n2C
Second: CC(/C=N/NC(=S)Nc1cccc(S(=O)(=O)N(C)C)c1)c1ccccc1 (stereo not shown)
The “hERG current change (%, negative = inhibition) at 10uM” value of the first is lower: -15.5% for the first, 4.46% for the second.

`CN=C(Nc1cccnc1)c1ccccc1` was tested, and the “hERG current change (%, negative = inhibition) at 10uM” value was 15.6%.
